According to the supplement of paper PMC8728848:
The other results are listed elsewhere or left out.

What was measured:
Test in all cases: glycan array binding signal (z-score within array); higher = stronger binding
Conditions in all cases: glycan notation: IUPAC condensed, linker removed
Fuc(a1-2)Gal = molecular target: Fuc(a1-2)Gal
How it was run: (§1)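 The binding signal is a Z-score computed within each array. Data were drawn from 3228 arrays in the Consortium for Functional Glycomics database, restricted to those with a known protein sequence. Scores were averaged over arrays of the same protein sequence at different concentrations or buffers, and over linkers, and negative values can be taken as non-binding.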

Fuc(a1-2)Gal(b1-3)GalNAc = molecular target: Fuc(a1-2)Gal(b1-3)GalNAc
How it was run: as §1

[1] = molecular target: Fuc(a1-2)Gal(b1-3)GalNAc(a1-3)[Fuc(a1-2)]Gal(b1-4)Glc
How it was run: as §1

[2] = molecular target: Fuc(a1-2)Gal(b1-3)GalNAc(a1-3)[Fuc(a1-2)]Gal(b1-4)GlcNAc
How it was run: as §1

[3] = molecular target: Fuc(a1-2)Gal(b1-3)GalNAc(b1-3)Gal
How it was run: as §1

[4] = molecular target: Fuc(a1-2)Gal(b1-3)GalNAc(b1-3)Gal(a1-4)Gal(b1-4)Glc
How it was run: as §1

[5] = molecular target: Fuc(a1-2)Gal(b1-3)GalNAc(b1-4)[Neu5Ac(a2-3)]Gal(b1-4)Glc
How it was run: as §1

Fuc(a1-2)Gal(b1-3)GlcNAc = molecular target: Fuc(a1-2)Gal(b1-3)GlcNAc
How it was run: as §1

[6] = molecular target: Fuc(a1-2)Gal(b1-3)GlcNAc(b1-2)Man(a1-3)[Fuc(a1-2)Gal(b1-3)GlcNAc(b1-2)Man(a1-6)]Man(b1-4)GlcNAc(b1-4)GlcNAc
How it was run: as §1

[7] = molecular target: Fuc(a1-2)Gal(b1-3)GlcNAc(b1-2)Man(a1-3)[Fuc(a1-2)Gal(b1-3)GlcNAc(b1-2)Man(a1-6)]Man(b1-4)GlcNAc(b1-4)[Fuc(a1-6)]GlcNAc
How it was run: as §1

[8] = molecular target: Fuc(a1-2)Gal(b1-3)GlcNAc(b1-3)Gal(b1-4)Glc
How it was run: as §1

[9] = molecular target: Fuc(a1-2)Gal(b1-3)GlcNAc(b1-3)GalNAc
How it was run: as §1

[10] = molecular target: Fuc(a1-2)Gal(b1-3)GlcNAc(b1-3)[Fuc(a1-2)Gal(b1-3)GlcNAc(b1-6)]GalNAc
How it was run: as §1

[11] = molecular target: Fuc(a1-2)Gal(b1-3)GlcNAc(b1-3)[Gal(b1-4)GlcNAc(b1-6)]Gal(b1-4)Glc
How it was run: as §1

[12] = molecular target: Fuc(a1-2)Gal(b1-3)GlcNAc(b1-3)[Neu5Ac(a2-6)Gal(b1-4)GlcNAc(b1-6)]Gal(b1-4)Glc
How it was run: as §1

[13] = molecular target: Fuc(a1-2)Gal(b1-3)GlcNAc6S
How it was run: as §1

[14] = molecular target: Fuc(a1-2)Gal(b1-3)[Fuc(a1-4)]GlcNAc
How it was run: as §1

[15] = molecular target: Fuc(a1-2)Gal(b1-3)[Fuc(a1-4)]GlcNAc(b1-2)Man(a1-3)[Fuc(a1-2)Gal(b1-3)[Fuc(a1-4)]GlcNAc(b1-2)Man(a1-3)]Man(b1-4)GlcNAc(b1-4)GlcNAc
How it was run: as §1

[16] = molecular target: Fuc(a1-2)Gal(b1-3)[Fuc(a1-4)]GlcNAc(b1-2)Man(a1-3)[Fuc(a1-2)Gal(b1-3)[Fuc(a1-4)]GlcNAc(b1-2)Man(a1-6)]Man(b1-4)GlcNAc(b1-4)[Fuc(a1-6)]GlcNAc(b1-4)[Fuc(a1-6)]GlcNAc
How it was run: as §1

[17] = molecular target: Fuc(a1-2)Gal(b1-3)[Fuc(a1-4)]GlcNAc(b1-3)[Fuc(a1-3)[Gal(b1-4)]GlcNAc(b1-6)]Gal(b1-4)Glc
How it was run: as §1

[18] = molecular target: Fuc(a1-2)Gal(b1-3)[Fuc(a1-4)]GlcNAc(b1-3)[Gal(b1-4)GlcNAc(b1-6)]Gal(b1-4)Glc
How it was run: as §1

[19] = molecular target: Fuc(a1-2)Gal(b1-4)Fuc(a1-3)]GlcNAc(b1-2)Man(a1-3)[Fuc(a1-2)Gal(b1-4)[Fuc(a1-3)]GlcNAc(b1-2)Man(a1-6)]Man(b1-4)GlcNAc(b1-4)GlcNAc
How it was run: as §1

Fuc(a1-2)Gal(b1-4)Glc = molecular target: Fuc(a1-2)Gal(b1-4)Glc
How it was run: as §1

Fuc(a1-2)Gal(b1-4)Glc6S = molecular target: Fuc(a1-2)Gal(b1-4)Glc6S
How it was run: as §1

Fuc(a1-2)Gal(b1-4)GlcNAc = molecular target: Fuc(a1-2)Gal(b1-4)GlcNAc
How it was run: as §1

[20] = molecular target: Fuc(a1-2)Gal(b1-4)GlcNAc(b1-2)Man
How it was run: as §1

[21] = molecular target: Fuc(a1-2)Gal(b1-4)GlcNAc(b1-2)Man(a1-3)[Fuc(a1-2)Gal(b1-4)GlcNAc(b1-2)Man(a1-6)]Man(b1-4)GlcNAc(b1-4)GlcNAc
How it was run: as §1

[22] = molecular target: Fuc(a1-2)Gal(b1-4)GlcNAc(b1-2)Man(a1-3)[Fuc(a1-2)Gal(b1-4)GlcNAc(b1-2)Man(a1-6)]Man(b1-4)GlcNAc(b1-4)[Fuc(a1-6)]GlcNAc
How it was run: as §1

[23] = molecular target: Fuc(a1-2)Gal(b1-4)GlcNAc(b1-2)[Fuc(a1-2)Gal(b1-4)GlcNAc(b1-4)]Man(a1-3)[Fuc(a1-2)Gal(b1-4)GlcNAc(b1-2)Man(a1-6)]Man(b1-4)GlcNAc(b1-4)GlcNAc
How it was run: as §1

[24] = molecular target: Fuc(a1-2)Gal(b1-4)GlcNAc(b1-3)Gal(b1-4)GlcNAc
How it was run: as §1

[25] = molecular target: Fuc(a1-2)Gal(b1-4)GlcNAc(b1-3)Gal(b1-4)GlcNAc(b1-2)Man(a1-3)[Fuc(a1-2)Gal(b1-4)GlcNAc(b1-3)Gal(b1-4)GlcNAc(b1-2)Man(a1-6)]Man(b1-4)GlcNAc(b1-4)GlcNAc
How it was run: as §1

[26] = molecular target: Fuc(a1-2)Gal(b1-4)GlcNAc(b1-3)Gal(b1-4)GlcNAc(b1-3)Gal(b1-4)GlcNAc
How it was run: as §1

[27] = molecular target: Fuc(a1-2)Gal(b1-4)GlcNAc(b1-3)GalNAc
How it was run: as §1

[28] = molecular target: Fuc(a1-2)Gal(b1-4)GlcNAc(b1-3)[Fuc(a1-2)Gal(b1-4)GlcNAc(b1-6)]GalNAc
How it was run: as §1

[29] = molecular target: Fuc(a1-2)Gal(b1-4)GlcNAc(b1-3)[Fuc(a1-3)[Gal(b1-4)]GlcNAc(b1-6)]Gal(b1-4)Glc
How it was run: as §1

[30] = molecular target: Fuc(a1-2)Gal(b1-4)GlcNAc(b1-6)GalNAc
How it was run: as §1

[31] = molecular target: Fuc(a1-2)Gal(b1-4)GlcNAc6S
How it was run: as §1

[32] = molecular target: Fuc(a1-2)Gal(b1-4)[Fuc(a1-3)]GlcNAc
How it was run: as §1

[33] = molecular target: Fuc(a1-2)Gal(b1-4)[Fuc(a1-3)]GlcNAc(b1-2)Man(a1-3)[Fuc(a1-2)Gal(b1-4)[Fuc(a1-3)]GlcNAc(b1-2)Man(a1-6)]Man(b1-4)GlcNAc(b1-4)[Fuc(a1-6)]GlcNAc
How it was run: as §1

[34] = molecular target: Fuc(a1-2)Gal(b1-4)[Fuc(a1-3)]GlcNAc(b1-2)[Fuc(a1-2)Gal(b1-4)[Fuc(a1-3)]GlcNAc(b1-4)]Man(a1-3)[Fuc(a1-2)Gal(b1-4)[Fuc(a1-3)]GlcNAc(b1-2)Man(a1-6)]Man(b1-4)GlcNAc(b1-4)GlcNAc
How it was run: as §1

[35] = molecular target: Fuc(a1-2)Gal(b1-4)[Fuc(a1-3)]GlcNAc(b1-3)Gal(b1-4)[Fuc(a1-3)]GlcNAc
How it was run: as §1

[36] = molecular target: Fuc(a1-2)Gal(b1-4)[Fuc(a1-3)]GlcNAc(b1-3)Gal(b1-4)[Fuc(a1-3)]GlcNAc(b1-3)Gal(b1-4)[Fuc(a1-3)]GlcNAc
How it was run: as §1

[37] = molecular target: Fuc(a1-2)Gal(b1-4)[Fuc(a1-3)]GlcNAc(b1-3)GalNAc
How it was run: as §1

[38] = molecular target: Fuc(a1-2)Gal(b1-4)[Fuc(a1-3)]GlcNAc(b1-3)[Neu5Ac(a2-6)Gal(b1-4)GlcNAc(b1-6)]Gal(b1-4)Glc
How it was run: as §1

[39] = molecular target: Fuc(a1-2)Gal3S(b1-4)GlcNAc
How it was run: as §1

B1: LBL-152 (Laetiporus bicolor), B0D650 (protein)
chain: MSNEYNPPLGIAFRLCGLASDRVLFSRVSPSPEVFHHPKSEVYPDQWFVAIPGSGQNAGCYAIKSKNTGKVLFSRMSPDPRVGHIDGDGKYPDNWFKFEAGSGKYAGYFRLRAVASDTVLVSRTSTGTDTQVINYPATSAKYDDQYFTILFDHHHHHH
In the case of B1, the “glycan array binding signal (z-score)” value (Fuc(a1-2)Gal) is reported as -0.151, the “glycan array binding signal (z-score)” value (Fuc(a1-2)Gal(b1-3)GalNAc) is reported as -0.156 and the “glycan array binding signal (z-score)” value [1] is reported as -0.154. The “glycan array binding signal (z-score)” value [2] was -0.157, the “glycan array binding signal (z-score)” value [3] was -0.162 and the “glycan array binding signal (z-score)” value [4] was -0.154. The “glycan array binding signal (z-score)” value [5] was -0.15, the “glycan array binding signal (z-score)” value (Fuc(a1-2)Gal(b1-3)GlcNAc) was -0.153 and the “glycan array binding signal (z-score)” value [6] was -0.159. The “glycan array binding signal (z-score)” value [7] was -0.143, the “glycan array binding signal (z-score)” value [8] was -0.15 and the “glycan array binding signal (z-score)” value [9] was -0.159. The “glycan array binding signal (z-score)” value [10] was -0.15, the “glycan array binding signal (z-score)” value [11] was -0.154 and the “glycan array binding signal (z-score)” value [12] was -0.144. The “glycan array binding signal (z-score)” value [13] was -0.14, the “glycan array binding signal (z-score)” value [14] was -0.152 and the “glycan array binding signal (z-score)” value [15] was -0.144. The “glycan array binding signal (z-score)” value [16] was -0.154, the “glycan array binding signal (z-score)” value [17] was -0.151 and the “glycan array binding signal (z-score)” value [18] was -0.15. For the same binder, the “glycan array binding signal (z-score)” value [19] was -0.143, the “glycan array binding signal (z-score)” value (Fuc(a1-2)Gal(b1-4)Glc) was -0.156 and the “glycan array binding signal (z-score)” value (Fuc(a1-2)Gal(b1-4)Glc6S) was -0.15. For the same binder, the “glycan array binding signal (z-score)” value (Fuc(a1-2)Gal(b1-4)GlcNAc) was -0.156, the “glycan array binding signal (z-score)” value [20] was -0.149 and the “glycan array binding signal (z-score)” value [21] was -0.12. For the same binder, the “glycan array binding signal (z-score)” value [22] was -0.146, the “glycan array binding signal (z-score)” value [23] was -0.136 and the “glycan array binding signal (z-score)” value [24] was -0.14. The “glycan array binding signal (z-score)” value [25] was -0.109, the “glycan array binding signal (z-score)” value [26] was 0.007 and the “glycan array binding signal (z-score)” value [27] was -0.145. The “glycan array binding signal (z-score)” value [28] was -0.159, the “glycan array binding signal (z-score)” value [29] was -0.146 and the “glycan array binding signal (z-score)” value [30] was -0.146. The “glycan array binding signal (z-score)” value [31] was -0.156, the “glycan array binding signal (z-score)” value [32] was -0.157 and the “glycan array binding signal (z-score)” value [33] was -0.147. The “glycan array binding signal (z-score)” value [34] was -0.149, the “glycan array binding signal (z-score)” value [35] was -0.16 and the “glycan array binding signal (z-score)” value [36] was -0.155. The “glycan array binding signal (z-score)” value [37] was -0.14, the “glycan array binding signal (z-score)” value [38] was -0.152 and the “glycan array binding signal (z-score)” value [39] was -0.159.
